Measured values taken from PubChem BioAssay AID588342 (National Center for Advancing Translational Sciences (NCATS), 2011).
Hit rate of the full screen: of about 360,000 compounds, about 25,000 (6.9%) were called active. The inconclusive results got no clear call from the source; some entries with a clear call stand among them for comparison. Calls follow the shape of the dose curve; as a rule, active = well fitted inhibition curve with a large enough effect; inconclusive = small, poorly fitted or top-dose-only effect; inactive = flat fitted curve, though single readings scatter. Where the call is inconclusive, the potency comes from a doubtful curve fit.

Target: Luciferin 4-monooxygenase (Photinus pyralis) (UniProt P08659)
Chain of UniProt P08659 (P08659 whole entry, looked up): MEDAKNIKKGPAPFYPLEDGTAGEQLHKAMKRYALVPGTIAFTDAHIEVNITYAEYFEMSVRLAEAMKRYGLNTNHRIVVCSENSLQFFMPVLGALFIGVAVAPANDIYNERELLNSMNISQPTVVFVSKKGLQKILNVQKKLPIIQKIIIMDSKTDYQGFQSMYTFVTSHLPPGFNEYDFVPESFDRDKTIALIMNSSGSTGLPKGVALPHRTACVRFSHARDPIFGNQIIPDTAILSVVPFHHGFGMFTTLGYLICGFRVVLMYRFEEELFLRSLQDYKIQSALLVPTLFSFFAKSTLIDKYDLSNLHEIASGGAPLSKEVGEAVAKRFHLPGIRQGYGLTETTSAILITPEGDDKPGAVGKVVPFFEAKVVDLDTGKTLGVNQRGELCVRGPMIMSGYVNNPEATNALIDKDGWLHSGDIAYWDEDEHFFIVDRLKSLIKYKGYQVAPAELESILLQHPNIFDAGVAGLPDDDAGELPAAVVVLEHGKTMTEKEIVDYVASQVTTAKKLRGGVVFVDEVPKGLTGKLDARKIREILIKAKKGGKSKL
Test: qHTS profiling assay for firefly luciferase inhibitor/activator using purifed enzyme and Km concentrations of substrates (counterscreen for miR-21 project); also: nearly all actives have a fitted effect of over 55% in size;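 as to activity change, negative = inhibition: plate controls were vehicle for no effect and reference inhibitor for full effect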
Conditions: purified FLuc, luminescence inhibition; series mostly up to 57.5 µM; activity change, negative = inhibition: at the top concentration
Method in brief: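 Biochemical qHTS of compounds, final roughly 60 µM downward over six points, against 10 nM purified firefly luciferase using Km concentrations of substrates (10 uM D-luciferin, 10 uM ATP) in Tris acetate pH 7.5 buffer; luminescence output.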
Potency is read from the fitted curve at half-maximal effect; tags tell the direction and shape of the fitted curve.

Row | Structure (SMILES) | Potency | activity change, negative = inhibition
1 | CCN(CC)C(=O)CSc1nnc(-c2ccccc2)o1 | inconclusive: 23.9 µM [inhibitor, partial curve] | –
2 | CC(=O)n1cc(/C=N/NC(=O)c2sc(C)nc2C)c2ccccc21 | inconclusive: 19 µM [inhibitor, partial curve] | –
3 | Cc1ccc(NC(=O)/C(=C/C=C/c2ccccc2)NC(=O)c2ccccc2)cc1 | inconclusive: 6.01 µM [inhibitor, full curve] | –
4 | C=CCOc1ccc2c(c1)C(=NO)c1cc(OCC=C)ccc1-2 | inconclusive: 21.3 µM [inhibitor, single point] | –
5 | O=C(Nc1ccccc1)N1CCCC2CCCCC21 (centres undefined) | active: 15.1 µM | –
6 | NC(=O)Nc1ccccc1C(=O)NCCc1ccccc1 | inconclusive: 19 µM [inhibitor, single point] | –
7 | Cc1ccc(/C=N/NC(=O)c2sccc2OCc2ccc(F)cc2)cc1 | active: 1.35 µM | –
8 | N=c1oc2ccc(Cl)cc2cc1C(=O)NC1CCCCCC1 | inconclusive: 4.78 µM [inhibitor, partial curve, poor fit] | –
9 | Cc1c(C(=O)N/N=C/c2ccncc2)nnn1-c1nonc1N | – | inactive: 0.704%
10 | CCOc1ccc(CNCc2ccccc2Cl)cc1 | inconclusive: 33.8 µM [inhibitor, single point] | –
11 | Cc1ccc(Nc2nc(-c3c(C)nc4ccccn34)cs2)cc1 | inconclusive: 13.5 µM [inhibitor, partial curve] | –
12 | CCC1CCCCN1C(=O)Cn1c(=O)n(CCCCCC(=O)NCc2ccccc2Cl)c(=O)c2sccc21 (centres undefined) | inconclusive: 23.9 µM [inhibitor, partial curve, poor fit] | –
13 | Cc1ccc(-c2ccc(/C=N\n3cnnc3)o2)c(Br)c1 | inconclusive: 23.9 µM [inhibitor, single point] | –
14 | O=C(CSC1=NS(=O)(=O)c2cc(Cl)ccc2N1)Nc1ccccc1C(F)(F)F | inconclusive: 26.9 µM [inhibitor, partial curve, poor fit] | –
15 | Fc1ccccc1Nc1ncnc2c1nc1n2CCCCC1 | active: 12 µM | –
16 | Cc1nnc(Sc2cc(NCCCO)c([N+](=O)[O-])c3nonc23)s1 | inconclusive: 37.9 µM [inhibitor, partial curve, poor fit] | –
17 | CCOCC(=O)Nc1cc(C(=O)Nc2ccc(F)cc2)ccc1Cl | inconclusive: 21.3 µM [inhibitor, partial curve, poor fit] | –
18 | CCOc1ccc(N(CC(=O)NCCSCc2ccc(Cl)cc2)S(C)(=O)=O)cc1 | – | inactive: -1.77%
19 | Cc1ccc(NC(=O)Nc2cnccn2)c(C)c1 | inconclusive: 16.9 µM [inhibitor, partial curve] | –
